# PubChem BioAssay AID1347071 (National Center for Advancing Translational Sciences (NCATS), 2019)
# The campaign covered roughly 410,000 compounds. About 260 (0.063%) were called active. Inconclusive results, whose numbers are uncertain, are shown with a selection of clear calls. Calls come from the whole dose curve; as a rule, active = well fitted activation curve with a large enough effect; inconclusive = small, poorly fitted or top-dose-only effect; inactive = no such curve, though single readings can be large or run the other way. Potencies of inconclusive entries are left out as doubtful fits.
# Assay: qHTS for compounds that reverse cellular toxicity of Amyloid beta (A-beta) peptide in yeast: Primary Screen; note: nearly all actives have a fitted effect of over 55% in size
# Conditions: yeast expressing A-beta42, growth rescue, OD600, 48 h; growth rescue: at 46.1 µM (top of the series), 0% DMSO, 100% iron-clioquinol control
# Outline: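 Yeast growth medium received pinned compounds, then yeast cells expressing toxic A-beta were added; plates incubated at 30 C for 48 hr. Growth read as absorbance at 600 nm, normalized to DMSO and equimolar FeCl3 plus clioquinol controls.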
# Potency is the fitted concentration of half-maximal effect; tags give direction and shape of the fitted curve.
row,Structure (SMILES),Potency
1,Cc1cccc(NC(=S)NNC(=O)c2csc3c2CCC(C)C3)c1 (stereo not drawn),"inconclusive [activator, partial curve, poor fit]"
2,NC(=S)NN=C1CCC(C2CCCCC2)CC1 (stereo not drawn),active: 3.16 µM
3,CCC(=O)Nc1ccc(NC(=O)CSc2nnnn2-c2ccc3c(c2)OCCO3)cc1,inactive
4,CCCCOc1ccc(C(=O)NCCS(=O)(=O)N2CCN(c3ccccc3OC)CC2)cc1,"inconclusive [activator, single point]"
5,CCCCc1ccc(NC(=S)N2CCN(c3ccccn3)CC2)cc1,"inconclusive [activator, partial curve]"
6,Cc1ccc(S(=O)(=O)N(CC(=O)Nc2ccc(C)c(Cl)c2)C(=O)N2CCN(C)CC2)cc1,inactive
7,O=C(COc1ccccc1)Nc1nnc(-c2ccc(Cl)s2)o1,"inconclusive [activator, full curve]"
8,CN1/C(=C/C(=S)NC(=O)C2CCC2)C(C)(C)c2ccccc21,"inconclusive [activator, partial curve, poor fit]"
9,S=C(Nc1ccccc1)N1CCc2ccccc21,"inconclusive [activator, single point]"
10,Cc1ccc(NC(=O)C(C)N2C(=O)c3ccccc3S2(=O)=O)cc1Cl (stereo not drawn),"inconclusive [activator, partial curve, poor fit]"
11,CCN(CC)c1ncnc2scc(C3COc4ccccc4O3)c12 (stereo not drawn),inactive
12,CCOc1ccc(CSCCNC(=S)Nc2ccc(OC)cc2)cc1,"inconclusive [activator, single point]"
13,Cc1cccc(NC(=S)NCCc2c[nH]c3ccccc23)c1,"inconclusive [activator, single point]"
14,CCn1c(=N)c(S(=O)(=O)c2ccccc2)cc2c(=O)n3ccccc3nc21,inactive
15,O=C(Nc1ccc(Cl)c(Cl)c1)OCc1cncs1,"inconclusive [activator, partial curve]"
16,CCn1c(-c2cc(-c3ccc(C)cc3)nc3ccccc23)n[nH]c1=S,"inconclusive [activator, single point]"
17,O=C(COC(=O)C1CCN(c2ccc(C(F)(F)F)cn2)CC1)Nc1cc(F)ccc1F,"inconclusive [activator, single point]"
18,COc1ccc(NC(=O)N(C)C[C@H]2Oc3c(NC(=O)c4ccncc4)cccc3C(=O)N([C@H](C)CO)C[C@@H]2C)cc1,inactive
19,CCOC(=O)c1cc(-c2ccccc2)sc1NC(=O)CC(C)C,inactive
20,CCC1CN(C(=O)N2CCC(C(=O)NCc3ccc(F)cc3)CC2)c2ccccc2O1 (stereo not drawn),"inconclusive [activator, partial curve, poor fit]"
21,CCOC(=O)c1cnc(-c2ccc(C(F)(F)F)cn2)[nH]c1=O,"inconclusive [activator, single point]"
22,Cc1cc(OCC(=O)NNC(=S)NC(=O)c2ccc(Br)o2)ccc1Cl,"inconclusive [activator, full curve, poor fit]"

row,Structure (SMILES),Potency
1,COc1cc(C(=S)N2CCCC2)ccc1OC(=O)c1ccc(Cl)cc1[N+](=O)[O-],"inconclusive [activator, single point]"
2,Cc1cc2ccccc2n1-c1ccc(C(=O)N2CCC(C(=O)NCc3ccc(F)cc3)CC2)s1,"inconclusive [activator, single point]"
3,O=C1[C@H]2[C@@H](c3ccc(C(F)(F)F)cc3)N[C@]3(CCCN(Cc4ccc(Br)cc4)C3=O)[C@H]2C(=O)N1Cc1ccccc1,"inconclusive [activator, partial curve]"
4,Cc1ccccc1CC(=O)N1CCCc2ccccc21,"inconclusive [activator, full curve]"
5,CCc1nc2ccc(C(=O)NCCCN3CCCC3=O)cn2c1N(C)CCC(C)C,"inconclusive [activator, full curve, poor fit]"
6,CCc1ccc2c(c1)NC(=O)C2(C)Cc1ccccc1Cl (stereo not drawn),"inconclusive [activator, partial curve, poor fit]"
7,O=S(=O)(Cc1ccccc1)Nc1ccccc1,inactive
8,CC(Cc1cccs1)NC(=O)Nc1ccc(Cl)cc1 (stereo not drawn),inactive
9,CCS(=O)(=O)N1Cc2ccccc2CC1C(=O)OCC(=O)Nc1ccc(C)cc1 (stereo not drawn),"inconclusive [activator, single point]"
10,CCOC(=O)Cc1csc(NC(=O)CCc2ccccc2)n1,"inconclusive [activator, single point]"
11,CCOC(=O)c1c(NC(=O)COC(=O)c2ccc(Cl)nc2)sc(C(=O)N(C)C)c1C,"inconclusive [activator, partial curve, poor fit]"
12,FC(F)(F)c1cccc(Cc2noc(CN(Cc3ccccn3)CC3CCCO3)n2)c1 (stereo not drawn),"inconclusive [activator, single point]"
13,Cn1c(/C=C/c2ccc(Cl)cc2)c([N+](=O)[O-])c(=O)n(C)c1=O,inactive
14,O=C(Nc1ccccc1)c1sc2cc(C(F)(F)F)cnc2c1-c1cccs1,inactive
15,Cc1cccc(N2CCN(C(=O)CC(NC(=O)c3ccccc3Cl)c3ccccc3)CC2)c1C (stereo not drawn),"inconclusive [activator, single point]"
16,CCCCN(CC)C(=O)CN1C(=O)c2ccccc2C1=O,"inconclusive [activator, single point]"
17,S=C(NCc1ccccc1)NCc1ccc(CNC(=S)NCc2ccccc2)cc1,inactive
18,S=C(NCc1ccc(Cl)cc1)NCc1ccco1,"inconclusive [activator, single point]"
19,Cc1ccc(N2CCN(C(=O)CCc3c(C)nc4c(c3C)c(=O)n(C)c(=O)n4C)CC2)c(C)c1,inactive
20,CC1(c2ccccc2)NC(=O)N(CCOc2ccccc2)C1=O (stereo not drawn),"inconclusive [activator, partial curve, poor fit]"
21,Cc1ccccc1NC(=O)/C=C/c1cccc(C(F)(F)F)c1,"inconclusive [activator, full curve]"
